Source: the RNAGym collection of RNA variant scans (doi:10.7554/elife.90254)
Read counts are not given, so values of variants with three or more changes are uncertain.

B1: OR4K15 (parent)
chain: GUUAACGGUCAUAGGCCAUGGAAACUAGGAGCACCAUUUCGCUGCCAGUGAAGAAAUGAACAAAGAAAAUCUGGGCCAGGCAGGCAUCAAAAGAAAUAGUCUUGCGCUCAACCAGAAAGUCUGUAAUCAUUUUAAGGGUA

Variants of: B1
Assay: self-cleavage, relative activity (ratio to wild type); higher = more cleavage; in vitro, sequencing; the parent is a self-cleaving ribozyme
For GUUAACGGUCAUAGGCCAUGGAAACUAGGAGCACCAUUUCGCUGCCAGUGAAGAAGUGUACAAAGAAAAUCUGGGCCAGGCAGGCAUCAAAAGAAAUAGUCUUGCGCUCAGCCAGAAAGUCUGUAAUCAUUUUAAGGGUA, the self-cleavage was 0.02.
Work on GUUAACGGUCAUAGGCCAUGGAAACUAGGAGCACCAUUUCGCUGCCAGUGAAGAAGUGAACAAGGAAGAUCUGGGCCAGGCAGGCCUCAAAAGAAACAGUCUCGCGCUCAACCAGAAAGUCUGUAGUCAUUUUAAGGGUA yielded a self-cleavage of 0.12.
With GUUAACGGUCAUAGGCCAUGGAAACUAGGAGCACCAUUUCGCUGCCAGUGAAGAAGUGAACAAAGGAAAUCUGGGCCAGGCAGGCAUCAAAAGAAAUAGUCUUGCGCUCAACCAGAAAGUCUGCAAUCAUUUUAAGGGUA the self-cleavage was 1.11.
GUUAACGGUCAUAGGCCAUGGAAACUAGGAGCACCAUUUCGCUGCCAGUGAAGAAGUGACCAAAGAAAAUCUGGGCCAGGCAGGCAUCAAAAGAAAUAGUCUUGCGCUCUACCAGAAGGUCUGUAAUCAUUUUAAGGGUA gave a self-cleavage of 1.39.
Variant GUUAACGGUCAUAGGCCAUGGAAACUAGGAGCACCAUUUCGCUGCCAGUGAAGAAGUGAACGAAGAAAAUCUGGGCCAGGCAGGCAUCAAAAGAAAUAGUCCAGCGCUCAACCAGAAAGUCUGUAAUCAUUUUAAGGGUA has a self-cleavage of 0.19.
Work on GUUAACGGUCAUAGGCCAUGGAAACUAGGAGCACCAUUUCGCUGCCAGUGAAGAAGUGAACAGAGAAAAUCUGGGCCAGGCAGGCAUCAAAAGAAAUAGUCUUGCGCUCAACCAGAAGGUCUGUAGUCAUUUUAAGGGUA yielded a self-cleavage of 1.3.
Work on GUUAACGGUCAUAGGCCAUGGAAACUAGGAGCACCAUUUCGCUGCCAGUGAAGAACUGAGCAUAGAAAAUCCGGGCCAGGCAGGCAUCAAAAGAAAUAGUCUUGCGCUCAACCAGAAAGUCUGUAAUCAUUUUGAGGGUA yielded a self-cleavage of 0.13.
Work on GUUAACGGUCAUAGGCCAUGGAAACUAGGAGCACCAUUUCGCUGCCAGUGAAGAACUGAACAAAGAAAAUCUGGGCCAGGCAGGCAUCAAAAGAAAUAGUCUUGCGCUCAGCCAGAAAGUCUGUAACCAUUUUAAGGGUA yielded a self-cleavage of 0.
GUUAACGGUCAUAGGCCAUGGAAACUAGGAGCACCAUUUCGCUGCCAGUGAAGAAGUGAACAAAGAAGAUCUGGGCCAGGCAGGCAUCAAAAGAAAUAGUCCUGCGCUCAACCAGAAAGUCUGUAAUCAUCUUAAGGGUA showed a self-cleavage of 1.71.
GUUAACGGUCAUAGGCCAUGGAAACUAGGAGCACCAUUUCGCUGCCAGUGAAGAAGUGAACAAAGAGUAGCUGGGCCAGGCAGGCAUCAAAAGAAAUAGUCUUGCGCUCAGCCAGAAAGUCUGUAAUCAUUUUAAGGGUA showed a self-cleavage of 0.07.
GUUAACGGUCAUAGGCCAUGGAAACUAGGAGCACCAUUUCGCUGCCAGUGAAGAAGUGAACAAAGGAAAUCUGGGCCAGGCAGGCAUCAAAAGAAAUAGUCUUGCACUCAACCAGAAAGUCUGUAAUCAUUUUAAGGGUA gave a self-cleavage of 0.01.
Variant GUUAACGGUCAUAGGCCAUGGAAACUAGGAGCACCAUUUCGCUGCCAGUGAAGAUAUGAACAAAGAAAAUCUGGGCCAGGCAAGCAUCAAAGGAAAUAGUCUUGCGCUCAACCGGAAAGUCUGUAAUCAUUUUAAGGGUA has a self-cleavage of 0.82.
In the case of GUUAACGGUCAUAGGCCAUGGAAACUAGGAGCACCAUUUCGCUGCCAGUGAAGAAGUGAACAAGGAAAAUCUGGGCCAGGCAGGCAUCAAAAGAAAUAGUCUUGCGCCCGACCAGAAAGUCUGUAAUCAUUUUAAGGGUA, the self-cleavage is reported as 0.
With GUUAACGGUCAUAGGCCAUGGAAACUAGGAGCACCAUUUCGCUGCCAGUGAAGAAGUGGACAAAGAAAGUCUGGGCCAGGCAGGCAUCAAAAGAAAUAGUCUUGCGCUCAACCAGAAAGUCUGUAAUCACCUUAAGGGUA the self-cleavage was 0.87.
In the case of GUUAACGGUCAUAGGCCAUGGAAACUAGGAGCACCAUUUCGCUGCCAGUGAAGAAGUGAACAAAGAAGAUCUGGGCCAGGCAGGCAUCAAAAGAAAUAGUCUUGCGCUCAGCCAGAAAGUCUGUUAUCAUUUUAAGGGUA, the self-cleavage is reported as 0.02.
For GUUAACGGUCAUAGGCCAUGGAAACUAGGAGCACCAUUUCGCUGCCAGUGAAGAAGUGAGCAAAGAGAAUCUGGGCCAGGCAGGCAUCAAAAGAAAUAGUCUUGCGCUCAACCAGAAAGUCUGUAAUCAUUUUAAGGGUA, the self-cleavage was 1.21.
Variant GUUAACGGUCAUAGGCCAUGGAAACUAGGAGCACCAUUUCGCUGCCAGUGAAGAAGUGAACAGAGAAAAUCUGGGCCAGGCAGGCAUCAAAAGAAAUAGUCUUGCGCUCAACCUGAAAGUCUGUAAUCAUUUUAAGGGUA has a self-cleavage of 0.07.
For GUUAACGGUCAUAGGCCAUGGAAACUAGGAGCACCAUUUCGCUGCCAGUGAAGAAGUGAACAGAGAAAAUCUGGGCCAGGCAGGCAUCAAAAGAAAUAGUCUUGCGCUCAACCAGAAAGUCUGUAAUCACUUUAAGGGUA, the self-cleavage was 1.71.
For GUUAACGGUCAUAGGCCAUGGAAACUAGGAGCACCAUUUCGCUGCCAGUGAAGAAGUGAACAAGGGAAAUCUGGGCCAGGCAGGCAUCAAAAGAAAUAGUCUUGCGCUCAACCAGAAAGUCCGUAAUCAUUUUAAGGGUA, the self-cleavage was 0.76.
GUUAACGGUCAUAGGCCAUGGAAACUAGGAGCACCAUUUCGCUGCCAGUGAAGAUAUGAACAAAGAGAAUCUGGGCCAGGCAGGCAUCAAAAGAAAUAGUCUUGUGCUCAACCAGAAGGUCUGUAAUCAUUUUAAGGGUA gave a self-cleavage of 0.01.
For GUUAACGGUCAUAGGCCAUGGAAACUAGGAGCACCAUUUCGCUGCCAGUGAAGAAGUGGACAAAGAAAAUCUGGGCCAGGCAGGCAUCAAAAGAAAUAGUCUUGCGCUCAACCAGAAAGUCUGUAAUCAUUUUAAGGGUU, the self-cleavage was 1.09.
GUUAACGGUCAUAGGCCAUGGAAACUAGGAGCACCAUUUCGCUGCCAGUGAAGAUAUGAACAAAGAAGAUCUGGGCCAGGCAGGCAUCAAAAGAGAUAGUCUUGCGCUCAACCAGAAAGUCUGUAAUCAUUUUAAGGGUA gave a self-cleavage of 1.78.
In the case of GUUAACGGUCAUAGGCCAUGGAAACUAGGAGCACCAUUUCGCUGCCAGUGAAGAUAUGAUCAAAGAAAAUCUGGGCCAGGCAGGCAACAAAAGAAAUAGUCUUGCGCUCAACCAGAAAGUCUGUAAUCAUUCUAAGGGUA, the self-cleavage is reported as 2.27.
GUUAACGGUCAUAGGCCAUGGAAACUAGGAGCACCAUUUCGCUGCCAGUGAAGAAGUGAGCGAGGAAAGUCUGGGCCAGGCUGGCAUCAAAAGAAGUAGUCUUGCGCUCAACCAGAAAGUCUGUAAUCAUUUUAAGGGUA gave a self-cleavage of 0.19.
Work on GUUAACGGUCAUAGGCCAUGGAAACUAGGAGCACCAUUUCGCUGCCAGUGAAGAAGUGAACGAAGAAAAUCUGGGCCAGGCAGGCAUCUAAAGAAAUAGUCUUGCGCUCAACCAGAAAGUCUGUAAUCAUUUUAAGGGUA yielded a self-cleavage of 1.59.
Variant GUUAACGGUCAUAGGCCAUGGAAACUAGGAGCACCAUUUCGCUGCCAGUGAAGAUACGAACAAAGAAAAUCUGGGCCAGGCAGGCAUCCAAAGAAAUAGUCUUGCGCUCAACCAGAAAGUCUGUAAUCAUUCUAAGGGUA has a self-cleavage of 0.72.
In the case of GUUAACGGUCAUAGGCCAUGGAAACUAGGAGCACCAUUUCGCUGCCAGUGAAGAAGUGAACGAAGAAAAUCUGGGCCAGGCAGGCAUCAAAAGAGAUAGUCUUGCGCUCAACCAGAAAGUCUGUAAUCAUUUUAAGGGUA, the self-cleavage is reported as 1.14.
GUUAACGGUCAUAGGCCAUGGAAACUAGGAGCACCAUUUCGCUGCCAGUGAAGAAGUGAUCAAAGAAAAUCUGGGCCAGGCAGGCACCAGAAGAAAUAGUCUUGCGCUCAACCAGAAAGUCUGUAAUCAUCUUAAGGGUA showed a self-cleavage of 0.41.
Variant GUUAACGGUCAUAGGCCAUGGAAACUAGGAGCACCAUUUCGCUGCCAGUGAAGAAGUGAACGAGGAAAAUCUGGGCCAGGCGGGCAUCAAAAGAAAUAGUCUUGCGCUCAACCAGAAAGUCUGUAACCAUUUUAAGGGUA has a self-cleavage of 0.06.
Work on GUUAACGGUCAUAGGCCAUGGAAACUAGGAGCACCAUUUCGCUGCCAGUGAAGAUAUGAACAAAGAAAAUCUGGGCCAGGCAGGCACCGAAAGAAAUAGCCUUGCGCUCAACCAGAAAGUCUGUAAUCAUUUUAAGGGUA yielded a self-cleavage of 2.3.
For GUUAACGGUCAUAGGCCAUGGAAACUAGGAGCACCAUUUCGCUGCCAGUGAAGAUAUGAACAAAGGAGAUCUGGGCCAGGCAGGCAUCAAAAGAAAUAGUCUUGCGCUCAACCAGAAAGUCUGUAAUCAUUUUAAGGGUA, the self-cleavage was 0.77.
In the case of GUUAACGGUCAUAGGCCAUGGAAACUAGGAGCACCAUUUCGCUGCCAGUGAAGAAGUGAACAGAGAAAAUCUGGGCCAGGCAGGCAUCAAAAGAAAUAGUCUUGCGCUCAACCAGAAAGUCCGUAAUCAUUUUAAGGGUA, the self-cleavage is reported as 0.85.
Variant GUUAACGGUCAUAGGCCAUGGAAACUAGGAGCACCAUUUCGCUGCCAGUGAAGAUAUGAACAAAGAAAAUCUGGGCCAGGCAGGCAUCAAAAGAAGUAGUCUUGCGCUCAACCAGAAAGUCUGUAGUCAUUUUAAGGGUA has a self-cleavage of 0.72.
Work on GUUAACGGUCAUAGGCCAUGGAAACUAGGAGCACCAUUUCGCUGCCAGUGAAGAACUGAACAAAGAGAAACUGGGCCAGGCAGGCAUCAAAAGAAAUAGUCUUGCGCUCAACCAGAAAGUCUGUAUUCAUUUUAAGGGCA yielded a self-cleavage of 0.42.
GUUAACGGUCAUAGGCCAUGGAAACUAGGAGCACCAUUUCGCUGCCAGUGAAGAAGUGGACAAAGAAAAUCUGGGCCAGGCAGGCGUCAAAAGAAACAGUCUUGCGCUCAACCAGGAAGUCUGUAAUCAUUUUAAGGGUA gave a self-cleavage of 0.43.
With GUUAACGGUCAUAGGCCAUGGAAACUAGGAGCACCAUUUCGCUGCCAGUGAAGAAGUGAACAAAGAGAAUCCGGGCCAGGCAGGCAUCAAAAGAAAUAGUCUUGCGCUCAACCAGAAAGUCUGUAAUCAUCUUAAGGGUA the self-cleavage was 0.13.
With GUUAACGGUCAUAGGCCAUGGAAACUAGGAGCACCAUUUCGCUGCCAGUGAAGAAGUGAACAAAGGAAGUCUGGGCCAGGCAGGCAUCAAAAGAAAUAGUCUUGCGCUCAACCAGAAAGUCUGUAAUCAUUUUAAGGGUA the self-cleavage was 0.97.
With GUUAACGGUCAUAGGCCAUGGAAACUAGGAGCACCAUUUCGCUGCCAGUGAAGAAGUGAACGAAGAAAAUCUGGGCCAGGCAGGCAUCAAAAGAAAUAGUCUCGCGCUCAACCAGAAAGUCUGUAAUCAUUUUAAGGGUA the self-cleavage was 1.11.
GUUAACGGUCAUAGGCCAUGGAAACUAGGAGCACCAUUUCGCUGCCAGUGAAGAACUGAACAAAGAAAAUCUGGGCCAGGCGGGCAUCAAAAGAAAUAGUCUUGCGCUCAACCAGAAAGUCUGUAGUCAUUUUAAGGGUA showed a self-cleavage of 0.2.
GUUAACGGUCAUAGGCCAUGGAAACUAGGAGCACCAUUUCGCUGCCAGUGAAGAAGUGAACAGAGAAAAUCUGGGCCAGGCAGGCAUCAAAAGAAAUAGUCUUGCGCUCAACCGGAAAGUCUGUAAUCAUCUUAAGGGUA showed a self-cleavage of 0.62.
With GUUAACGGUCAUAGGCCAUGGAAACUAGGAGCACCAUUUCGCUGCCAGUGAAGAUAUGAACAAAGAAAAUCUGGGCCGGGCGGGCAACAAAAGAAAUAGACUUGCGCUCAACCAGAAAGUCUGUAAUCAUUUUAAGGGUA the self-cleavage was 0.08.
